Laboratory results published in PubChem BioAssay AID485344 (National Center for Advancing Translational Sciences (NCATS), 2010).
Out of some 340,000 compounds screened, about 6,900 (2%) were called active. No stated cut-off is given here; in the data, active means inhibition above about 30%; inactive means below that, where a call was filed. The list shows a part of the results, in another mix than the full data. The source gives no active or inactive call for entries shown without one.

Molecular target: D(2) dopamine receptor (Homo sapiens) (UniProt P14416)
Chain of UniProt P14416 (P14416 whole entry, looked up): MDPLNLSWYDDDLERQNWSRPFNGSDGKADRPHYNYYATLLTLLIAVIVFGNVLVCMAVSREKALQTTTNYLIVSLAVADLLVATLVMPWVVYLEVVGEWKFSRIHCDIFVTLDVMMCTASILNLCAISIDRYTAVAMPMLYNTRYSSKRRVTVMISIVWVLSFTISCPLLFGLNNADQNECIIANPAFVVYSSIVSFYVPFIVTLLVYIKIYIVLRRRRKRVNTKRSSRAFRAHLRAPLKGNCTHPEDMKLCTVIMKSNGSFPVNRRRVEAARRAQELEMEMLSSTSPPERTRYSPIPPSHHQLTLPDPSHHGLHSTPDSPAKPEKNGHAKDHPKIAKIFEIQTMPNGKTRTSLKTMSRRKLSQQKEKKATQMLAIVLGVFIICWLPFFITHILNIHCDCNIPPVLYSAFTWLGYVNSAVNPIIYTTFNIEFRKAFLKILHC
Assay: HTS Assay for Allosteric Antagonists of the Human D2 Dopamine Receptor: Primary Screen for Antagonists; further: 0% is about no effect
Conditions: HEK293 TREx D2 cells, calcium flux, dopamine EC80; at 10 µM; stronger effect = higher value
Procedure, shortened: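 Tetracycline-induced HEK293 TREx cells expressing D2 receptor forced-coupled to calcium signalling, loaded with no-wash calcium dye. Compounds added and calcium flux read 180 s, then dopamine added at EC80 and read a further 180 s.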

Compound	inhibition
CCSc1ncc(Cl)c(C(=O)N(Cc2ccc(C(C)(C)C)cc2)C2CCS(=O)(=O)C2)n1 (stereo not drawn)	-14.8%
COc1ccc2c(c1)c1c(c(=O)n(Cc3ccccc3)c(=O)n1Cc1ccccc1)n2C	-0.325%
c1ccc(CCCNCC2COc3ccccc3O2)cc1 (stereo not drawn)	active: 85.9%
O=C(CSc1nnc(-c2ccncc2)n1-c1ccccc1)Nc1ccc(Br)cc1	5.62%
O=C(COc1ccc(S(=O)(=O)N2CCCCC2)cc1)N1CCCC1	active: 31%
CCOc1cc(C)c(C(C)C)cc1S(=O)(=O)n1ccnc1CC	15%
CCOc1ccc(NC(=O)C2CCN(S(=O)(=O)c3ccc4c(c3)oc(=O)n4C)CC2)cc1	-11.5%
CCOc1ccc2nc(N3CCC(C(=O)Nc4ccc(Br)cc4F)CC3)sc2c1	-7.32%
COc1ccc2c(c1)CC(NC(=O)Nc1ccc(NC(C)=O)cc1)CO2 (stereo not drawn)	14.2%
COc1ccccc1CNC(=O)C1CCN(Cc2cc3ccccc3n2Cc2cccc(C)c2)CC1	4.91%
O=C(NCc1ccccc1Cl)c1ccc(NC(=O)c2nsc3ccccc23)cc1	-6.5%
Cc1ccccc1Cn1c(=O)n(CCCCC(=O)NCc2ccccc2Cl)c(=O)c2ccccc21	-3.61%
COc1ccc(Cl)cc1NC(=O)Cn1nc(C(F)(F)F)c2c1CCC2	8.41%
COc1ccc(CCC(=O)NCc2nc3cccnc3n2Cc2cccc(OC)c2)cc1	20.3%
Cc1c(C(=O)Nc2ccccc2Br)oc2ccc(S(=O)(=O)N3CCOCC3)cc12	-28.6%
CCCCc1nn2c(=O)cc(COC(=O)C(C)Oc3ccccc3)nc2s1 (stereo not drawn)	0.606%
CCC1CN(C(=O)N2CCC(C(=O)N3CCN(c4ccc(F)cc4)CC3)CC2)c2ccccc2O1 (stereo not drawn)	-4.14%
CCOC(=O)N1CCc2c(sc3c2c(=O)n(-c2ccc(CC)cc2)c(=O)n3CC(=O)c2ccccc2)C1	-12%
Cc1ccc(NC(=O)C2CCN(C(=O)c3cnn(-c4ccccc4)c3-n3cccc3)CC2)cc1	19.5%
COc1ccc(NS(=O)(=O)c2ccc3c(c2)CCCN3C(=O)C2CCC2)cc1OC	6.02%
Cc1ccccc1OCC(=O)Nc1c(C)ccc2nsnc12	6.93%
CC1CCN(S(=O)(=O)c2ccc3c(ccn3CC(=O)NCc3ccc(N(C)C)cc3)c2)CC1	1.17%
CC(C)c1ccc(S(=O)(=O)c2nnn3c2nc(N2CCOCC2)c2sccc23)cc1	-9.17%
COc1ccc(C(=O)Nc2cc(C)ccc2NC(=O)COc2ccccc2)cc1	active: 44.4%

Compound	inhibition
CCCCCn1c(=O)[nH]c2cc(C(=O)NCc3ccc(F)cc3)ccc2c1=O	3.05%
Cc1cccc(-n2c(=O)c3c(c4cc(C)ccc4n3C)n(CC(=O)Nc3ccccc3Cl)c2=O)c1	-11%
COCCNC(=O)c1ccc2c(c1)N(Cc1ccc(C(F)(F)F)cc1)C(=O)c1ccccc1S2	2.11%
CC(NC(=O)c1ccc(CSc2nc3ccncc3n2Cc2ccc(F)cc2)cc1)c1ccccc1 (stereo not drawn)	5.57%
O=S(=O)(c1ccccc1)c1nc(-c2cccs2)oc1N1CCCCC1	10.2%
Cc1ccc2c(c1)C(O)(CC(=O)/C=C/C=C/c1ccccc1)C(=O)N2 (stereo not drawn)	active: 45.3%
Cc1cccc(OCCCSc2nc(-c3ccc(C(C)(C)C)cc3)nc3cc(=O)[nH]n23)c1C	4.21%
CCCCCN1CC(O)=C(c2nc3ccccc3[nH]2)C1=N	active: 38.9%
CCN(CC)S(=O)(=O)c1cc(C(=O)OCC(=O)NC2CCCc3ccccc32)ccc1C (stereo not drawn)	active: 36.8%
Cc1nn(CCC(=O)NCc2cccc(Br)c2)c(=O)c2nn(-c3ccccc3)c(C)c12	5.64%
O=C(c1ccc(CS(=O)c2ccccc2Cl)o1)N1CCN(c2cccc(C(F)(F)F)c2)CC1 (stereo not drawn)	13.6%
CC(C)OCCCn1c(SCC(N)=O)nc2c(sc3ccccc32)c1=O	-10.5%
O=C(NCCCCc1ccccc1)c1nn(-c2ccccc2F)nc1CO	7.35%
CCn1c(=O)c2sccc2n2c(CCC(=O)N3CCN(c4ccccc4OC)CC3)nnc12	23.2%
COc1ccc(-c2nnc(SCC(=O)Nc3ccccc3C)o2)cc1OC	-4.07%
COc1ccc(CN2CCN(C(=O)c3ccco3)CC2)cc1OCc1ccccc1	active: 70.8%
CC(C)NC(=O)Cn1ccc2cc(S(=O)(=O)N3CCCCCC3)ccc21	-0.0928%
COc1ccc(-c2cn(-c3ccc(C)cc3)c(S(=O)(=O)CC(=O)Nc3ccccc3)n2)cc1	-14.2%
CCOc1ccccc1CNC(=O)CCCN1C(=O)COc2ccc(C)cc21	-10.5%
Cc1cc(Br)ccc1NC(=O)c1coc(=O)c2ccccc12	7.63%
Cc1ccc(CNC(=O)CN(C)S(=O)(=O)c2ccc(Br)s2)cc1	10.8%
CC(C)c1ccccc1NC(=O)CSc1nnc(COc2ccccc2)o1	8.67%
Cc1oc2ncn(CC(C)C)c(=O)c2c1C(=O)Nc1cccc(C(F)(F)F)c1	-1.37%
CCN1CCc2c(sc(NC(=O)Nc3ccc(Cl)c(Cl)c3)c2C(N)=O)C1	active: 72.5%
